Measurements published in PubChem BioAssay AID488969 (Vanderbilt High Throughput Screening Facility, 2010).
Over roughly 110,000 compounds, “z-score” has its median near -0.1; the highest 2% begin near 2. This is one part of the list. Activity calls are given as the source filed them.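 The calls were made as follows: active = z-score in the third read window above 3 or below -3; inactive = the rest.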

What follows are compounds tested against Metabotropic glutamate receptor 8 (Rattus norvegicus) (UniProt P70579) (assay: rat mGluR8 modulators via GIRK flux, primary screen, cell-based, thallium flux, HTS (AID 488969)). Conditions: HEK293 rat mGluR8, GIRK (G protein-gated inwardly rectifying potassium channel) thallium flux, FluoZin2; at 10 µM; stronger effect = higher value; submaximal glutamate (EC20) added with thallium.
UniProt P70579, sequence (P70579 whole entry, looked up): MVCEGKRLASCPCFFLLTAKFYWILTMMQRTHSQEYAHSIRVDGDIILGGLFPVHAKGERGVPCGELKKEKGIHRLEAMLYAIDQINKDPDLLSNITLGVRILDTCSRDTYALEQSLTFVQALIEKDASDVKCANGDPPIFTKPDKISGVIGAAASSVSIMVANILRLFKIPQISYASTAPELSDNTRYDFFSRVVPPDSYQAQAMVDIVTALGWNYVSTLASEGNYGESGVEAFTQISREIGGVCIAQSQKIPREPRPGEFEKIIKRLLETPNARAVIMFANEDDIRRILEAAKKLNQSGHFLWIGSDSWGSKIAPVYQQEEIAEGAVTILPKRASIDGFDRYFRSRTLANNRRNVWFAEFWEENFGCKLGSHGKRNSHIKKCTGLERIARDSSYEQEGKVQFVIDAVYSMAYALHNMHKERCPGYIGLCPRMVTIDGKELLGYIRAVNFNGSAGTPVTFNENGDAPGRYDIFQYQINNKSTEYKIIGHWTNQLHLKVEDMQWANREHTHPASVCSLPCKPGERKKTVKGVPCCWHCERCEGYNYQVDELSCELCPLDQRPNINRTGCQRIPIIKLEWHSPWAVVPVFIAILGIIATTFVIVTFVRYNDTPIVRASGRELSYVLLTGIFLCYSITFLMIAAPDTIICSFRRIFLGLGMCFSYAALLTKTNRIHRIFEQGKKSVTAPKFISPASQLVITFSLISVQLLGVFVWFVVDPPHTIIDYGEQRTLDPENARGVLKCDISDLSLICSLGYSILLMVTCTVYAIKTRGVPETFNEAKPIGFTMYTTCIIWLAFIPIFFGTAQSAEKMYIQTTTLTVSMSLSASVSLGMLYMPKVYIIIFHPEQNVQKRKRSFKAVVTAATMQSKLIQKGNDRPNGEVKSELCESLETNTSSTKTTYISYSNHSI

SMILES | z-score
Cc1ccc(S(=O)(=O)N2CCN(C(=O)CCN3C(=O)c4ccccc4C3=O)CC2)cc1C | -0.148
CCc1cc(-c2n[nH]c(=S)n2-c2ccccc2C)cs1 | -0.325
CC1CN(C(=O)C2CCCC2)C(C)CN1C(=O)C1CCCC1 (stereo not given) | 0.888
COC(=O)c1ccc2c(c1)C(C)(C)C(/C=C/c1ccccc1O)=[N+]2C | -0.714
O=C(NC1CCCCC1)C1CCN(c2nccs2)CC1 | -0.0726
O=C(NCCOC(=O)c1ccc(Cl)cc1)c1cccnc1 | 1.01
O=C(NC1(C(F)(F)F)C(=O)Nc2c1c(=O)[nH]c(=O)n2Cc1ccco1)C1CC1 (stereo not given) | -0.556
Nc1nnc(CCOc2ccc(Cl)cc2)s1 | -0.144
Cc1nc(-n2[nH]c3c(c2=O)CCCC3)[nH]c(=O)c1Cc1ccccc1 | -0.872
CCOC(=O)c1c(N2C(=O)C3CC(C)=C(C)CC3C2=O)sc(C)c1C (stereo not given) | -0.882
CCOC(=O)c1ccc(-n2[nH]c(-c3ccccc3)cc2=O)cc1 | 0.242
CCC(c1nnnn1CCOC)N1CCN(Cc2ccccc2OC)CC1 (stereo not given) | 0.442
CC(=O)c1cn(CC(=O)NCc2cccnc2)c2ccccc12 | 0.276
Cc1ccc(C(C)C)c(OCC(=O)Nc2ccc(Cl)cn2)c1 | 0.385
Cc1ccc(C(=O)N(CC(=O)Nc2ccc(Cl)c(Cl)c2)Cc2ccco2)cc1 | -0.81
COc1ccccc1NC1=NC(c2ccc(Cl)cc2)N=C(N)N1 (stereo not given) | 1.88
O=C(Nc1cccc(Cl)c1)ON=C1c2ccccc2-c2ccccc21 | 0.349
COc1ccc(NC(=O)COC(=O)CCCOc2ccc(Cl)cc2Cl)cc1 | -0.0404
CC(=O)N(/N=C/c1cccc(C)c1)c1nc(-c2ccc(Br)cc2)cs1 | -0.163
CCCCCCOC(=O)Sc1nc2ccccc2o1 | 0.0536
O=C(CSc1ccc2c(c1)OCCO2)Nc1ncc(Cl)cc1Cl | -0.149
Cc1nc(NC(=O)c2ccccc2)sc1-c1csc(NCc2ccccc2)n1 | 0.38

SMILES | z-score
O=C(CCCOc1ccc(Cl)cc1)Nc1nncs1 | 0.62
Cc1ccc(-c2nc(N)n(C(=O)Cc3ccccc3)n2)cc1 | 0.176
O=C1[C@@H]2[C@@H]3C[C@@H]([C@H]4ON=C(c5ccc(Cl)cc5Cl)[C@@H]34)[C@@H]2C(=O)N1C1CCCCC1 | -0.5
CC1CCCCN1c1nnc(N)s1 (stereo not given) | -0.152
CC(C)(C)C(=O)NC(=S)Nc1cc(C(F)(F)F)ccc1N1CCOCC1 | 0.0538
O=C1CC(c2ccccc2)c2ccc(O)cc2O1 (stereo not given) | -1.31
CCc1cc(C(=O)O)c(NC(=O)C(c2ccccc2)c2ccccc2)s1 | -0.0977
NS(=O)(=O)c1cccc(NC(=O)CSc2ccccn2)c1 | -0.121
CCOC(=O)N1CCC(NC(=O)c2cc3cc4cc(OC)ccc4nc3o2)CC1 | -0.795
COc1ccc(N=C2SC(C(=O)O)CC(=O)N2Cc2ccc(OC)c(OC)c2)cc1 (stereo not given) | -0.441
CCOCCOCCC(C(=O)O)P(=O)(c1ccccc1)c1ccccc1 (stereo not given) | 0.307
COC(=O)c1ccccc1NC(=O)CCS(=O)(=O)c1ccc(Br)s1 | 0.448
CCCCCCc1nc2ccccc2c(=O)n1NC(=O)c1c(O)c2cccc3c2n(c1=O)CC3 | -0.113
Cc1cccc(NC2=NC3(CCCCC3)N=C(N)N2)c1 | 0.0139
COc1cc(/C=C(\NC(C)=O)C(=O)Nc2ccc(NC(C)=O)cc2)ccc1OC(C)=O | -0.0649
N#Cc1cc2c(nc1SCc1cccnc1)CCCCC2 | -0.348
Cc1cccc(N2CCN(C(=O)CCCOc3ccccc3)CC2)c1C | -2.63
CC(C)(C)c1cc(NS(=O)(=O)c2ccc3c(c2)OCCO3)on1 | -0.178
Cc1cccc(NS(=O)(=O)c2ccc(C3CCCCC3)cc2)c1 | -0.494
COc1cc([N+](=O)[O-])ccc1NC(=O)CN(C)C | -0.0308
CCCCN1C(=O)c2ccc(C(=O)NCCN3C(=O)S/C(=C\c4cccnc4)C3=O)cc2C1=O | -0.796
Fc1ccc(Oc2ncccn2)c(F)c1 | 0.118

SMILES | z-score
C/C(CC(=O)Nc1ccccn1)=N\NC(=O)C(=O)Nc1cccc(Cl)c1C | 0.436
COc1ccc(OCC(=O)NNc2c3ccccc3nc3ccccc23)cc1 | -0.462
O=C(Cc1c(C(=O)O)[nH]c2ccccc12)NCCN1CCN(c2ccccc2F)CC1 | 0.0465
O=C(Nc1ccccc1)/C(=C\c1ccncc1)NC(=O)c1ccccc1 | -0.0744
CCN(CC)CCCNC(=O)CC1Oc2ccc(C)cc2NC1=O (stereo not given) | -0.335
O=C(c1ccc2nccnc2c1)N1CCN(Cc2ccc3c(c2)OCO3)CC1 | 1.16
COc1ccc(CCn2nnc(-c3ccc(NC(C)=O)c(Cl)c3)n2)cc1 | 0.0768
Cc1ccccc1OCc1nc(-c2ccc(NC(=O)c3cccs3)cc2)no1 | -0.2
COc1cccc(-c2ncc3ccccn23)c1 | 0.279
Cc1ccc(C)c(N(C(=O)Cc2cccs2)C(C(=O)NC2CCCC2)c2ccc(C)o2)c1 (stereo not given) | -0.0192
CCn1c(SCC(=O)Nc2cc(NC(C)=O)ccc2OC)nnc1-c1ccccn1 | -0.2
CC[n+]1c(C)sc2c(C)cc(C)cc21 | -0.0785
Cc1c(=O)n(OCc2cccc(F)c2)c2ccccc2[n+]1[O-] | 0.132
CC1Oc2ccccc2N(CC(=O)N(Cc2ccccc2)Cc2ccccn2)C1=O (stereo not given) | 0.37
CCOc1cccc(C(=O)Nc2nccs2)c1 | -0.0912
O=C(O/N=C/c1cccc([N+](=O)[O-])c1)C1CC1 | 0.0781
Cn1cc(C(=O)Nc2ccc(F)c(F)c2)cn1 | 0.0938
O=C(Cc1ccc(-n2c(=S)[nH]c3ccccc3c2=O)cc1)N1CCN(c2ccccc2)CC1 | -0.757
c1ccc(-c2nc3ccccc3o2)nc1 | 0.78
Nc1c(-c2ccc(F)cc2)cnc2ncnn12 | -0.163
CCOc1ccc(CCNC(=O)C(O)c2ccccc2)cc1 (stereo not given) | 0.228
Cc1cc(C)nc(SCc2ccc3nonc3c2)n1 | -0.825

SMILES | z-score
O=C(Nc1ccccc1F)C1CCCN(S(=O)(=O)c2cccc3cccnc23)C1 (stereo not given) | 0.371
O=C(c1ccco1)N1CCN(CC(=O)N2c3ccccc3CCc3ccccc32)CC1 | -0.317
c1ccc(-c2csc(NNC3=NCCCCC3)n2)cc1 | 0.0175
CS(=O)(=O)c1ccc(Cl)c(NC(=O)CSc2nc3ccccc3c(=O)n2CCCN2CCOCC2)c1 | -0.358
O=C(CCNS(=O)(=O)c1ccc(Br)s1)N1CCN(c2ccccc2)CC1 | -0.575
Cc1ccc(NC(=O)N2CCC(C(=O)NCC(C)C)CC2)cc1 | 0.0784
CN(C)c1ccc(/C=C(/C(=O)c2ccc(Cl)cc2Cl)n2cncn2)cc1 | -0.266
Cc1ccc(Nc2nnc(SCC(=O)Nc3ccc(S(=O)(=O)N4CCOCC4)cc3)s2)cc1 | 0.283
COC(=O)C1=C(C)N(C)C(C)=C(C(=O)OC)C1c1ccc(Cl)cc1 | -0.451
COc1cc2c(cc1OC)C(c1ccc(-c3ccc(Cl)cc3Cl)o1)=NCC2 | -0.106
Clc1ccc(OCCn2ccnc2)c(Br)c1 | 0.203
Cc1ccc(C)c(NC(=O)CSc2nc3c(oc4ccccc43)c(=O)n2-c2ccccc2)c1 | -0.0703
Cc1ccc(N2C(=O)c3ccccc3C2(O)c2ncc[nH]2)cc1 (stereo not given) | -0.3
O=S(=O)(c1cccc2cccnc12)N1CCN(Cc2ccc3c(c2)OCO3)CC1 | 0.0765
O=C(NCCc1csc(-c2cccnc2)n1)c1cccc2ccccc12 | 0.472
O=C1CCC(=O)N1CCc1c[nH]c2ccccc12 | 0.917
c1ccc(C(Cc2nc(-c3ccccn3)no2)c2ccccc2)cc1 | 0.0811
Cc1ccc(-c2cc3nc(-c4ccc(Br)cc4)cc(N)n3n2)cc1 | -0.0381
COC(=O)C1=C(NC(=O)C(C)(C)C)CCS1 | -0.000537
COc1cccc(-n2c(SCC(=O)Nc3cc(C)on3)nc3c([nH]c4ccccc43)c2=O)c1 | -0.154
COc1ccc2oc(=O)c(C(=O)Oc3ccc(NC(C)=O)cc3)cc2c1 | -0.117
Cn1nc(C(F)(F)F)c2cc(NC(=O)OCc3ccc(F)cc3)sc21 | active: 9.32

SMILES | z-score
Cc1ccccc1OCCn1c(CCNC(=O)C(C)C)nc2ccccc21 | -0.179
Cc1cccc(NC(=S)NCCC(c2ccccc2)c2ccccc2)c1 | -0.348
Cc1ccc(S(=O)(=O)C2(C(=O)N3CCCCCC3)CC2)cc1 | -0.0403
O=C(CSCc1cnn(-c2ccccc2)c1-n1cccc1)NCc1cccs1 | -0.163
CC(=O)N(c1ccccc1C)C1CCCC1 | -0.199
O=C(N/N=C/c1cccc(OCC(=O)N2CCCC2)c1)C(=O)Nc1ccccc1F | -0.51
COc1ccc(S(=O)(=O)Cc2ccc(C(=O)N3CCN(C(=O)c4ccco4)CC3)o2)cc1 | 0.0311
COc1ccc(Br)cc1C(=O)Nc1ccc(N2CCN(S(C)(=O)=O)CC2)cc1 | 0.261
COc1ccccc1C/C(N)=N/OC(=O)COc1cccc(C)c1 | -0.225
CC1CCN(c2ccc(N3C(=O)C4CCCCC4C3=O)cc2[N+](=O)[O-])CC1 (stereo not given) | 0.00622
Nc1nc(CC(=O)CSc2ccc(Cl)cc2)nc(Nc2ccc(F)cc2)n1 | -0.282
C/C(=N\OC(=O)c1cccc(Cl)c1)c1sc(C)nc1C | 0.214
COCCNC(=O)CSC1=N/C(=C/c2ccc(Cl)c(Cl)c2)C(=O)N1c1ccccc1F | 0.268
C=CCNC(=O)C1CCN(S(=O)(=O)c2ccccc2)CC1 | 0.5
Cc1cc(C)n(-c2cc(N3CCN(S(=O)(=O)c4ccc(Br)cc4)CC3)ccc2[N+](=O)[O-])n1 | 0.016
CC1(C)CC(=O)C(C(C#Cc2ccccc2)C2=C(O)CC(C)(C)CC2=O)=C(O)C1 | -0.00387
COc1ccc(N(C(=O)C2CCCCC2)C2C=CS(=O)(=O)C2)c(OC)c1 (stereo not given) | 0.112
Cc1cc([N+](=O)[O-])ccc1-c1ccc(/C=N/NC(=O)Cc2ccccc2)o1 | -0.12
COc1ccc(NC(=S)SC)cc1OC | active: 3.35
CCOC(=O)CSc1nc2c(c(-c3ccc(C)o3)c1C#N)CCCC2 | -0.199
O=C(CSc1nnc(-c2ccccn2)n1Cc1ccco1)Nc1ccc2c(c1)OCO2 | -0.265
Cn1c(/C(C#N)=C/c2ccc(-c3ccc(S(N)(=O)=O)cc3)o2)nc2ccccc21 | -0.341
